Hit rate of the full screen: of about 340,000 compounds, about 6,900 (2%) were called active. No stated cut-off is given here; in the data, active means inhibition above about 30%; inactive means below that, where a call was filed. The entries are a selection whose mix differs from that of the whole data set. Where no call is shown, the source filed none.

In general, inhibition refers to the change of the read-out against control, counted positive when it falls.

For this assay, the target named is D(2) dopamine receptor (Homo sapiens) (UniProt P14416). As to the kind of experiment: HTS Assay for Allosteric Antagonists of the Human D2 Dopamine Receptor: Primary Screen for Antagonists. Further: 0% is about no effect. Particulars: HEK293 TREx D2 cells, calcium flux, dopamine EC80; at 10 µM; stronger effect = higher value. The method, boiled down: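 Cells plated overnight at 30 C with tetracycline; no-wash calcium dye, 30–90 min RT; 10 s baseline; compound pinned; 180 s read; EC80 dopamine added; another 180 s read.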
Sequence of UniProt P14416 (P14416 whole entry, looked up): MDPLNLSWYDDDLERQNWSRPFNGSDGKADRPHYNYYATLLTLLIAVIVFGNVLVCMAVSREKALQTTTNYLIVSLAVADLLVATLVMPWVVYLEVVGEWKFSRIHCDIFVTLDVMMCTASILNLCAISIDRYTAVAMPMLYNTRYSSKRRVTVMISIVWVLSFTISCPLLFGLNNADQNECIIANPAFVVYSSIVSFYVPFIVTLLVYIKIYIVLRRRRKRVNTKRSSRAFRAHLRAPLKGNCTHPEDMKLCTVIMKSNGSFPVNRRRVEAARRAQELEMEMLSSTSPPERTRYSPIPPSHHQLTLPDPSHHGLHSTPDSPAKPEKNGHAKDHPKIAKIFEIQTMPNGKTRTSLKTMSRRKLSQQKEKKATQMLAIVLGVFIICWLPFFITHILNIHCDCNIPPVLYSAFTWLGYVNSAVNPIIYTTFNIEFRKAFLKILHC
Regarding `Cc1ccc2oc(-c3cc(NC(=O)c4ccco4)ccc3Cl)nc2c1`, the inhibition was -3.96%.

In the case of `Cc1ccc(-c2nc3nc(C)cc(Nc4ccccc4O)n3n2)cc1`, the inhibition was -9.97%.

Turning to `CCOC(=O)c1ccccc1NC(=O)N1CCC(N2CCN(Cc3ccccc3)C(=O)C2=O)CC1`, the inhibition came out at 22.1%.

For the compound `O=C(Cn1c(=O)n(CC2CCCO2)c(=O)c2ccccc21)Nc1cccc(Cl)c1` (stereo unspecified), the inhibition is -21%.

`COc1cc(OC)c(Nc2nc3ccccc3nc2-n2nc(C)cc2C)cc1Cl`: the inhibition is -8.88%.

For `COC(=O)c1scc(-c2ccc(C)cc2)c1S(=O)(=O)N1CCN(c2ccc(OC)cc2)CC1`, the inhibition worked out at 7%.

Consider `COc1ccc(N2CC(NC(=O)CCc3ccccc3)CC2=O)cc1OC` (stereo unspecified), for which the inhibition is 17.3%.

In the case of `Cc1cc(C)c(NC(=O)c2cc(S(=O)(=O)N3CCN(c4ccccc4F)CC3)ccc2F)c(C)c1`, the inhibition stood at 5.07%.

On to `Cc1ccc2oc(=O)n(CCCOc3ccc(Cl)cc3)c2c1`, for which the inhibition is -12.6%.

Turning to `CCOC(=O)N1CCc2c(sc3c2c(=O)n(-c2ccc(CC)cc2)c(=O)n3CC(=O)Nc2ccc(C)cc2)C1`, the inhibition was -19.1%.

Regarding `CCNc1ccc(-c2nc(-c3ccco3)no2)cc1[N+](=O)[O-]`, the inhibition is -7.55%.

For `Cc1ccccc1NC(=O)c1c(NC(=O)Cc2ccccc2)sc2c1CCC2`, the inhibition is 15.8%.

Turning to `CN(C)S(=O)(=O)n1cc(/C=C(\NC(=O)c2ccccc2)C(=O)NCCCn2ccnc2)c2ccccc21`, the inhibition was 0.6%.

Regarding `CCOc1ccc(CNC(=O)c2ccc3c(c2)c(C)c(C)n3Cc2ccc(Cl)cc2)cc1`, the inhibition was determined as 4.16%.

In the case of `O=[N+]([O-])c1cc(-n2cnnn2)ccc1N1CCC(Cc2ccccc2)CC1`, the inhibition was active: 31.9%.

As to `CCc1ccc(CNC(=O)c2cc(-c3ccc(Cl)s3)nc3ccccc23)cc1`, the inhibition is -24%.

Regarding `Cc1ccc(N(C)S(=O)(=O)c2nnc(NC(=O)C3CCCCC3)s2)cc1`, the inhibition is -26.3%.

As to `CCOc1ccc(NC(=O)Cn2c(=O)oc3cc(S(=O)(=O)N4CCCCCC4)ccc32)cc1`, the inhibition turned out to be 13.4%.

For the compound `Cc1ccc(CCNC(=O)c2ccc(CSCc3ccccc3Cl)o2)cc1`, the inhibition worked out at 4.19%.

With `CC(=O)OCCNc1nc(-c2ccccc2)nc2ccccc12`, the inhibition is active: 38%.

As for `COc1ccc(-n2c3c(cc(-c4nc(-c5ccc(Cl)cc5)cs4)c2=O)C(=O)CC(C)(C)C3)cc1`, the inhibition is -7.87%.

`Cc1ccc2scc(N3CCN(c4ccc(F)cc4)CC3)c(=O)c2c1`: the inhibition stood at 2.6%.

On to `O=C1c2[nH]nc(-c3ccc(Br)cc3)c2C(c2cccc(O)c2)N1c1ccc(Cl)cc1` (stereo unspecified), for which the inhibition amounted to 8.1%.

With `COc1ccc(NC(=O)c2sc3nc4n(c(=O)c3c2C)CCC4)cc1Cl`, the inhibition worked out at 10.9%.

Turning to `COc1ccc(Cl)cc1NC(=O)CN(c1cccc(C)c1C)S(=O)(=O)c1ccccc1`, the inhibition was found to be 1.42%.

Take `CCOc1ccc(C(c2c(O)cc(C)n(CCOC)c2=O)N2CCC(C)CC2)cc1` (stereo unspecified): the inhibition is -5.48%.

Turning to `O=C(NCc1ccc(Cl)cc1)c1cnc2sc(N3CCCC3)nn2c1=O`, the inhibition is -2.4%.

As for `COc1ccc(C2c3c(n(C)c4ccccc34)C(=O)N2CC(=O)Nc2ccccc2F)cc1` (stereo unspecified), the inhibition was determined as 4.16%.

For `COc1ccc(CCNC(=O)c2ccc3c(c2)N(Cc2cccc(Cl)c2)C(=O)CS3)cc1OC`, the inhibition is -13%.

In the case of `COc1ccc2c(c1)sc1ncc(C(=O)NCc3cccc(Cl)c3)c(=O)n12`, the inhibition stood at 2.22%.

On to `COc1cc(C)ccc1OCCn1c(-c2ccc(Cl)cc2)nc2ccccc2c1=O`, for which the inhibition stood at 13.8%.

In the case of `Cc1ccc(NC(=O)Cn2c(=O)n(Cc3nc(C)no3)c(=O)c3cc4c(cc32)OCO4)c(Cl)c1`, the inhibition is 10.3%.

Turning to `Cc1cccc(C)c1NC(=O)Cn1c(=O)n(Cc2ccco2)c(=O)c2ccc(C(=O)NC3CCCC3)cc21`, the inhibition was 4.98%.

As for `CC1Cc2cc(S(=O)(=O)CCC(=O)Nc3ccc(F)c(Cl)c3)ccc2N1C(=O)C1CC1` (stereo unspecified), the inhibition was -6.73%.

For `O=C(CCn1c(=O)c2sccc2n(Cc2cccc(F)c2)c1=O)NCc1ccc2c(c1)OCO2`, the inhibition was 4.89%.

Take `Cc1ccc(S(=O)(=O)c2nc(-c3ccco3)oc2SCC(=O)Nc2ccc(F)cc2)cc1`: the inhibition was -2.89%.

Turning to `OC(CNCC1CCCCC1)COc1ccccc1` (stereo unspecified), the inhibition is active: 46.5%.

For the compound `COC(=O)c1cc(-c2ccc(OC)c(OC)c2)c2c(=O)[nH]c(=O)n(C)c2n1`, the inhibition amounted to 0.46%.

As to `CCC(=O)N1CCc2cc(S(=O)(=O)NC(CC(C)C)C(=O)NCc3ccc(F)cc3)ccc21` (stereo unspecified), the inhibition amounted to 24%.

Regarding `CS(=O)(=O)c1nc(-c2ccc(Br)cc2)cc(-c2ccccc2)c1C#N`, the inhibition was active: 41%.

In the case of `COc1ccc(-c2cn3nc(N4CCCC(C(=O)NCc5ccccc5OC)C4)sc3n2)cc1` (stereo unspecified), the inhibition was -1.24%.

Regarding `COc1ccc(N2CCC(CNC(=O)Nc3cccc(OC)c3)C2)cc1` (stereo unspecified), the inhibition was active: 56.7%.

Turning to `Cc1nn(-c2ccc3nnc(C)n3n2)c(C)c1CCC(=O)Nc1ccc(OC(F)(F)F)cc1`, the inhibition came to 9.95%.

On to `CCOC(=O)c1cnc2c(ccc3ccccc32)c1Nc1ccc(Cl)cc1`, for which the inhibition is 11.6%.

For `CC(=O)Nc1ccc(NS(=O)(=O)c2c(C)nc3sccn3c2=O)cc1`, the inhibition is 13.6%.

With `CCOc1ccc(CNC(=O)C2CCCN(S(=O)(=O)N(C)c3ccc(F)cc3)C2)cc1OC` (stereo unspecified), the inhibition was 2.06%.

For the compound `Cc1ccc(-n2ncc3c(Nc4ccccc4C)ncnc32)cc1`, the inhibition was 0.816%.

For `COc1cccc(Cn2c(NCc3ccc(C)cc3)nc3c2c(=O)n(C)c(=O)n3C)c1`, the inhibition is -10.4%.

Turning to `O=C(c1ccc2c(c1)OCO2)N1CCCC(c2ccccc2)C1` (stereo unspecified), the inhibition is active: 54.6%.

With `CCc1ccccc1Nc1nc2cc(Cl)c(Cl)cc2nc1-n1nc(C)cc1C`, the inhibition was -9.79%.

Regarding `CCOc1ccc(C(=O)c2cnc3ccc(Cl)cc3c2S(=O)(=O)c2ccc(C)cc2)cc1`, the inhibition was 2.05%.

As for `Cc1ccc(-n2nc(CO)c(C(=O)NCCCc3ccccc3)n2)cc1`, the inhibition is -3.27%.

For `Clc1ccc(CN2CCN(c3ncccn3)CC2)cc1Cl`, the inhibition is active: 77%.

On to `O=C(CN1CCc2ccccc2C1)Nc1cccc(S(=O)(=O)N2CCCC2)c1`, for which the inhibition is active: 49.2%.

For `Cc1ccc(-n2nc(C(=O)Nc3ccc(C)c(F)c3)c3c4ccccc4n(C)c3c2=O)cc1`, the inhibition was -6.48%.

Turning to `COc1ccc(-n2c(=O)c3ccccc3n(Cc3ccccc3C)c2=O)c(OC)c1`, the inhibition is -23.1%.

For `CC(=O)Nc1nonc1-c1nnc(SCC(=O)Nc2ccc(C)c(Cl)c2)n1-c1ccccc1`, the inhibition was 11.6%.

With `COc1ccc(C(=O)N2CCC(c3nc(-c4ccc(S(=O)(=O)N5CCCC5)cc4)no3)CC2)cc1`, the inhibition is -6.33%.

`COC(=O)c1cc2occc2n1Cc1cccc(C)c1`: the inhibition was -10.2%.

With `COc1ccc(C(=O)Nc2ccc(-c3nc4ccccc4s3)cc2C)cc1Cl`, the inhibition is -15.4%.

Take `COc1ccccc1CNC(=O)c1cnc2sc(N3CCCCCC3)nn2c1=O`: the inhibition is -3.88%.

With `O=C(CSc1nnc2ccc3ccccc3n12)c1ccc(F)cc1`, the inhibition was -19.5%.

Consider `Cc1ccc(C(=O)Nc2onc3c2CCCC3)cc1`, for which the inhibition was -17.2%.

As to `O=c1c2ccccc2n(Cc2ccccc2F)c(=O)n1-c1cccc(F)c1`, the inhibition was found to be 10.6%.

With `Cc1cccc(NC(=O)c2ccc(-c3nc(CSc4ccccc4)c(C)o3)cc2)c1C`, the inhibition was determined as 8.66%.

For the compound `Cc1nc2sc(C(N)=O)c(N)c2c(-c2ccc(Br)cc2)c1C(=O)Nc1ccc(Cl)cc1`, the inhibition is -6.87%.

With `CSc1ccc(CNC(=O)CCn2c(=O)c3cccn3c3ccc(F)cc32)cc1`, the inhibition is -3.43%.

In the case of `Cc1ccccc1C(=O)Nc1ccc2c(c1)CCCN2C(=O)c1cccs1`, the inhibition is 3.44%.

Consider `CCn1ccc2cc(S(=O)(=O)N3CCCN(C(=O)NCCOC)CC3)ccc21`, for which the inhibition was -13.3%.

Take `CCOC(=O)C1=C(CN2CCN(c3cc(C)ccc3C)CC2)NC(=O)NC1c1ccc(Cl)cc1` (stereo unspecified): the inhibition turned out to be 25.5%.

In the case of `COc1cccc(NC(=O)Cn2c(=O)n(CCCCC(=O)NCCc3ccccc3)c(=O)c3ccccc32)c1`, the inhibition is -22.6%.

On to `CCS(=O)(=O)N1CCc2cc(C(=O)Nc3cc(C(F)(F)F)ccc3Cl)ccc21`, for which the inhibition was -17%.

`O=C(CSCc1cccc(Br)c1)N/N=C/c1ccc2c(c1)OCO2`: the inhibition was active: 33.5%.

In the case of `Cc1ccc(C)c(CN2C(=O)c3ccccc3S(=O)(=O)c3ccc(C(=O)N4CCN(c5ccccc5F)CC4)cc32)c1`, the inhibition was determined as 3.64%.

`COc1ccc(CNC(=O)CCc2nnc3n(CC(C)C)c(=O)c4ccccc4n23)cc1`: the inhibition is 8.44%.

Take `COc1ccccc1N1CCN(Cc2cc3c(cc2Br)OCCO3)CC1`: the inhibition was active: 104%.

Consider `CCOC(=O)c1ccc(NC(=O)COC(=O)c2cn(CC)c3nc(C)ccc3c2=O)cc1`, for which the inhibition is -12.4%.

Take `COc1ccccc1-n1nc(-c2ccccc2)c2cnc3cc(C(F)(F)F)ccc3c21`: the inhibition was -21.7%.

Take `CC1CN(S(=O)(=O)c2ccc3c(c2)NC(=O)CC(=O)N3)c2ccccc2O1` (stereo unspecified): the inhibition came to 5.9%.

On to `COc1ccc(-c2oc3ncn4nc(-c5ccccc5C)nc4c3c2-c2ccc(OC)cc2)cc1`, for which the inhibition is -1.48%.

With `Cc1cccc(C)c1OC(=O)CSc1nnc(-c2cccs2)o1`, the inhibition is 16.3%.

Regarding `CCOc1cc(C(=O)N2CCC(c3ccncc3)CC2)cc(OCC)c1OCC`, the inhibition was -3.62%.

On to `COc1ccc(Cl)cc1NC(=O)CSc1nc(-c2ccco2)cc(C(F)(F)F)n1`, for which the inhibition is -0.221%.

Turning to `NC(=O)C1CCN(C(=O)Cn2c(-c3cccs3)cc3ccccc32)CC1`, the inhibition came to 4.69%.

As for `Cc1cc(C(=O)Nc2c(C)nn(Cc3ccc(F)cc3)c2C)no1`, the inhibition is -2.04%.

For the compound `CCOc1ccc(NC(=O)CN2CCN(CC(=O)Nc3ccccc3OCC)CC2)cc1`, the inhibition was 4.13%.

Consider `CCCCN(c1ccccc1)S(=O)(=O)c1ccc2c(c1)CC(C)N2C(=O)C1CC1` (stereo unspecified), for which the inhibition is 3.51%.

For the compound `CCc1ccccc1Nc1nc2ccccc2n2cnnc12`, the inhibition is 4.2%.

Take `COc1ccc(CCNC(=O)CCn2c(=O)c3cccn3c3cccnc32)cc1OC`: the inhibition worked out at 10.2%.

`COc1ccc(NC(=O)CSc2nc(-c3ccco3)nc3cc(=O)[nH]n23)cc1`: the inhibition turned out to be 0.45%.

Turning to `CCOC(=O)CN1C(=O)c2cccnc2Oc2ccccc21`, the inhibition is -2.08%.

On to `O=C(CCCn1c(=O)c2sccc2n(Cc2cccc(Cl)c2)c1=O)NCc1ccc2c(c1)OCO2`, for which the inhibition was -2.79%.

For `CNS(=O)(=O)c1cn(CC(=O)N2CCN(c3cc(C)ccc3C)CC2)cc1S(=O)(=O)NC`, the inhibition was 9.24%.

For `Cc1cc(C)cc(NC(=O)CSCc2cc(=O)c3ccc(C)c(C)c3[nH]2)c1`, the inhibition amounted to 20.4%.

With `O=c1cc(-c2ccccc2)n2c(SCc3cccc([N+](=O)[O-])c3)nnc2[nH]1`, the inhibition is -14.5%.

Turning to `COc1ccc(C(=O)Nc2noc3ccccc23)cc1`, the inhibition is 2.35%.

For the origin of these results see PubChem BioAssay AID485344 (National Center for Advancing Translational Sciences (NCATS), 2010).
